Measurements taken from the supplement of paper PMC4604168 (melanoma cell lines).
This is one part of the list. Repeats are few or missing, and single values can be far off.

How the values were obtained:
Test in all cases: cell count relative to DMSO control; melanoma cells; higher = more viable cells
Conditions in all cases: library dose: standard library concentration; 72 h
[1] = test system: 501Mel
[2] = test system: A101D
[3] = test system: A2058
[4] = test system: A375
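Note: cells treated in 1,536-well plates, then fixed and DAPI-stained, with nuclei counted from automated high-throughput microscope images.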

SMILES | cell count [1] [%] | cell count [2] [%] | cell count [3] [%] | cell count [4] [%]
Cc1cc(Nc2cc(N3CCN(C)CC3)nc(/C=C/c3ccccc3)n2)n[nH]1 + CCCCCCCCCCCC1=C(O)C(=O)C=C(O)C1=O [Embelin] (first compound 0.2 µM, partner dose 6 µM) | 75 | 93.7 | 110 | 100
COc1ccc(C2=N[C@@H](c3ccc(Cl)cc3)[C@@H](c3ccc(Cl)cc3)N2C(=O)N2CCNC(=O)C2)c(OC(C)C)c1 [Nutlin-3] + COC(=O)c1sccc1S(=O)(=O)Nc1ccc(Nc2ccccc2)cc1OC [GSK0660] (first compound 0.5 µM, partner dose 5 µM) | 98.7 | 58.2 | 96.2 | 86.1
Cc1cn(-c2cc(NC(=O)c3ccc(C)c(Nc4nccc(-c5cccnc5)n4)c3)cc(C(F)(F)F)c2)cn1 [nilotinib] + COc1cc2ncnc(Nc3ccc(Oc4ccccc4)cc3)c2cc1OC [SrcI1] (first compound 1 µM, partner dose 10 µM) | 72.7 | 62.8 | 77.2 | 129
Cc1cc(Nc2cc(N3CCN(C)CC3)nc(/C=C/c3ccccc3)n2)n[nH]1 + CNC(=O)c1cc(Oc2ccc(NC(=O)Nc3ccc(Cl)c(C(F)(F)F)c3)cc2)ccn1 [sorafenib] (first compound 0.2 µM, partner dose 2 µM) |  | 82.9 | 85 | 122
COc1ccc(C2=N[C@@H](c3ccc(Cl)cc3)[C@@H](c3ccc(Cl)cc3)N2C(=O)N2CCNC(=O)C2)c(OC(C)C)c1 [Nutlin-3] + COc1cc(N2CCC(N3CCN(C)CC3)CC2)ccc1Nc1ncc(Cl)c(Nc2ccccc2S(=O)(=O)C(C)C)n1 [NVP-TAE684] (first compound 0.5 µM, partner dose 0.4 µM) | 71 | 58.3 | 60.6 | 83.4
CC(C)C[C@H](NC(=O)[C@H](Cc1ccccc1)NC(=O)c1cnccn1)B(O)O [Bortezomib] + O=C(O)C(=O)Nc1sc2c(c1C(=O)O)CCNC2 [TCS401] (first compound 0.005 µM, partner dose 8.33333 µM) | 28 | 8.26 | 22.3 | 133
COc1ccc(C2=N[C@@H](c3ccc(Cl)cc3)[C@@H](c3ccc(Cl)cc3)N2C(=O)N2CCNC(=O)C2)c(OC(C)C)c1 [Nutlin-3] + O=c1cc(-c2cccc3c2Sc2ccccc2S3)oc(N2CCOCC2)c1 [KU55933] (first compound 0.5 µM, partner dose 5 µM) | 59.9 | 57.9 | 83 | 94.1
Cn1c(=O)n(-c2ccc(C(C)(C)C#N)cc2)c2c3cc(-c4cnc5ccccc5c4)ccc3ncc21 + c1cc(-c2cnn3cc(-c4ccc(OCCN5CCCCC5)cc4)cnc23)ccn1 [Dorsomorphin] (first compound 0.02 µM, partner dose 2 µM) | 33.9 | 73.4 | 48.4 | 72.5
COc1ccc(C2=N[C@@H](c3ccc(Cl)cc3)[C@@H](c3ccc(Cl)cc3)N2C(=O)N2CCNC(=O)C2)c(OC(C)C)c1 [Nutlin-3] + Cn1c(=O)n(-c2ccc(C(C)(C)C#N)cc2)c2c3cc(-c4cnc5ccccc5c4)ccc3ncc21 [NVP-BEZ235] (first compound 0.5 µM, partner dose 0.02 µM) |  | 62.6 | 62.5 | 78
Cc1cn(-c2cc(NC(=O)c3ccc(C)c(Nc4nccc(-c5cccnc5)n4)c3)cc(C(F)(F)F)c2)cn1 [nilotinib] + Cn1sc(=O)n(Cc2ccccc2)c1=O [TDZD-8] (first compound 1 µM, partner dose 2 µM) |  | 116 | 95.8 | 114
Cc1cn(-c2cc(NC(=O)c3ccc(C)c(Nc4nccc(-c5cccnc5)n4)c3)cc(C(F)(F)F)c2)cn1 [nilotinib] + Oc1cc(-c2nc(-c3ccccc3)[nH]c2-c2ccncc2)ccc1Cl [L779450] (first compound 1 µM, partner dose 1 µM) | 77.3 | 67.9 | 82.7 | 116
Cc1cn(-c2cc(NC(=O)c3ccc(C)c(Nc4nccc(-c5cccnc5)n4)c3)cc(C(F)(F)F)c2)cn1 [nilotinib] + CCCS(=O)(=O)Nc1ccc(F)c(C(=O)c2c[nH]c3ncc(Cl)cc23)c1F [PLX4720] (first compound 1 µM, partner dose 0.4 µM) |  | 79.6 | 121 | 120
